# From PubChem BioAssay AID1671193 (National Center for Advancing Translational Sciences (NCATS), 2021)
# Several values for one entry are separate records, joined by “and”; a condition that tells them apart may be missing. Identical values can stand only once. About 180 (0.12%) of roughly 150,000 compounds were called active. Inconclusive means that the source gave no clear call. Such entries were picked first, then a sample of the others. Calls come from the whole dose curve; as a rule, active = well fitted cell-killing curve with a large enough effect; inconclusive = small, poorly fitted or top-dose-only effect, or effect the other way; inactive = flat fitted curve, though single readings scatter. Where the call is inconclusive, the potency comes from a doubtful curve fit.
# Assay: GF-AFC viability counterscreen for inhibitors of alpha-synuclein gene (SNCA) expression; note: nearly all actives have a fitted effect of over 30% in size;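 for activity change, negative = cytotoxicity: 0% = DMSO-treated cells and -100% = medium-only wells without cells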
# Conditions: HEK-293-SNCA-luc viability, GF-AFC fluorescence, 24 h; activity change, negative = cytotoxicity: at 57.1 µM (top of the series) unless noted
# Summary of the method: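 HEK-293-SNCA-luc cells (1500/well) plated 24 h, then exposed 24 h to a dilution series; GF-AFC added 30 min at 37C, fluorescence 405/540 nm; normalised to medium-only and DMSO wells, Hill fit.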
# Potency is the fitted concentration of half-maximal effect; tags give direction and shape of the fitted curve.
SMILES,"activity change, negative = cytotoxicity",Potency
COc1cc2c(cc1OC1CCCC1)NC(=O)C21CCN(c2ncc(F)cn2)CC1,inactive: -9.28% [at 87.6 µM],–
C/C=C1/CN2CC[C@]34C(=Nc5ccc(OC)cc53)C2C[C@@H]1C4(CO)C(=O)OC (some centres undefined),inactive: -6.98%,–
CCC1(N2CCN(C(=O)Cc3c[nH]c4ccccc34)CC2)CCN(S(C)(=O)=O)C1 (centres undefined),–,"inconclusive: 35.5 µM [cytotoxic, single point]"
CC(=O)OC[C@]12C[C@H](O)C(C)=C[C@H]1O[C@@H]1[C@H](O)[C@@H](O)[C@@]2(C)[C@]12CO2,–,"inconclusive: 1.85 µM [cytotoxic, full curve]"
Cc1nc(-c2cccs2)cc([C@H]2CN3CC[C@H]2C[C@@H]3COC(=O)Nc2ccc(C(C)C)cc2)n1,–,"inconclusive: 39.8 µM [cytotoxic, single point]"
CC(=O)OC[C@]12C[C@H](OC(=O)CC(C)C)C(C)=C[C@H]1O[C@@H]1[C@H](O)[C@@H](O)[C@@]2(C)[C@]12CO2,–,"inconclusive: 0.026 µM [cytotoxic, full curve]"
Cc1nc(-c2ccc(N(C)C)cc2)cc([C@H]2CN3CC[C@H]2C[C@@H]3COC(=O)Nc2ccccc2)n1,–,"inconclusive: 25.1 µM [cytotoxic, single point]"
Cc1cccc(NC(=O)Cn2cc(C(=O)c3ccccc3)c3ccccc32)c1,–,"inconclusive: 15.8 µM [cytotoxic, partial curve, poor fit]"
c1ccc(CCCN2CCN(CCOC(c3ccccc3)c3ccccc3)CC2)cc1,–,"inconclusive: 34.1 µM [cytotoxic, partial curve, poor fit] and inconclusive: 28.2 µM [cytotoxic, single point]"
Cc1nc(C)c(C(=O)N2[C@H]3CC[C@@H]2c2cnc(-c4ccc(F)cc4)nc2C3)s1,inactive: 8.66%,–
COc1cncc(-c2cc3c(cc2OC)C2(CCN(C(C)=O)CC2)C(=O)N3)c1,inactive: 9.44% [at 87.6 µM],–
CCOc1ccccc1-n1c(C(C)N2CCN(C(=O)COc3ccc(Cl)cc3)CC2)nc2ccccc2c1=O (centres undefined),–,"inconclusive: 1.19 µM [cytotoxic, full curve] and inconclusive: 1.08 µM [cytotoxic, full curve]"
O=C1CO[C@H]2CN(Cc3ccco3)C[C@H]2N1Cc1ccccn1,inactive: -1.84% [at 87.6 µM],–
O=c1[nH]c2ccc(Cl)cc2c(N[C@@H]2CN3CCC2CC3)c1-c1nc2ccccc2[nH]1,–,"inconclusive: 96.1 nM [cytotoxic, full curve, poor fit] and inconclusive: 33.6 nM [cytotoxic, full curve, poor fit]"
C=C1[C@@H](C)[C@H]2[C@H](Cc3ccccc3)NC(=O)[C@]23OC(=O)/C=C/C(=O)CCC[C@@H](C)C/C=C/[C@H]3[C@@H]1O,–,active: 11.9 µM
CCCSc1nc2ccccc2c(=O)n1-c1ccccc1OC,–,"inconclusive: 5.62 µM [cytotoxic, full curve]"
COc1cc2c(cc1CCc1ccccc1)N(C(=O)c1ccc3[nH]ccc3c1)CC21CCN(C(C)=O)CC1,–,"inconclusive: 39.8 µM [cytotoxic, single point]"
Cc1ccc([N+](=O)[O-])[c]2c1[O][Hg]2,–,"inconclusive: 17.8 µM [cytotoxic, single point]"
Cc1cc(C)cc(-n2c(=O)[nH]c3ccccc3c2=O)c1,–,"inconclusive: 7.08 µM [cytotoxic, partial curve, poor fit]"
CC12Cc3cn[nH]c3C=C1CCC1C2CCC2(C)C1CCC2(C)O (centres undefined),inactive: -3.09%,–

SMILES,"activity change, negative = cytotoxicity",Potency
O=S(=O)(O)C(F)(F)C(F)(F)C(F)(F)C(F)(F)F,–,"inconclusive: 2.82 µM [rising, partial curve, poor fit]"
COc1ncccc1-c1cnc2[nH]cc(CC(=O)N3CCN(C)CC3)c2c1,inactive: 1.85% [at 87.6 µM],–
CCN(CC)C(=O)c1ccc(C2=CC3(CCNCC3)Oc3cccc(O)c32)cc1,–,"inconclusive: 48.2 µM [cytotoxic, single point]"
CN(C)c1cc2c(cc1Sc1nc3c(N)nccc3n1CCNCC(C)(C)C)OCO2,–,"inconclusive: 26.7 µM [cytotoxic, single point]"
COc1cc2c(cc1OCc1ccncc1)NC(=O)C21CCN(CC2CC2)CC1,inactive: 9.71% [at 87.6 µM],–
Cc1nc(-c2ccccc2)cc([C@H]2CN3CC[C@H]2C[C@@H]3CN(Cc2ccco2)Cc2ccco2)n1,–,"inconclusive: 25.1 µM [cytotoxic, partial curve]"
N#Cc1cccc(NC(=O)NC[C@H]2C[C@@H]3CCN2C[C@@H]3CN2CCN(c3ccccc3)CC2)c1,–,"inconclusive: 31.6 µM [cytotoxic, single point]"
O=c1[nH]c2ccccc2c(=O)n1-c1ccc(Cl)c(Cl)c1,–,"inconclusive: 2.24 µM [cytotoxic, full curve, poor fit]"
Cc1oc(-c2ccc(Cl)cc2)nc1CN1C(=O)CN=C(c2ccccc2)c2ccccc21,–,"inconclusive: 25.1 µM [cytotoxic, single point]"
Cc1nc(-c2ccccc2)cc([C@H]2CN3CC[C@H]2C[C@@H]3CNC(=O)c2cccs2)n1,–,"inconclusive: 35.5 µM [cytotoxic, single point]"
CC[C@@H](C)[C@H]1C(=O)O[C@H](C(C)C)C(=O)N(C)[C@@H]([C@@H](C)CC)C(=O)O[C@H](C(C)C)C(=O)N(C)[C@@H]([C@H](C)CC)C(=O)O[C@H](C(C)C)C(=O)N1C,–,"inconclusive: 6.3 µM [cytotoxic, single point]"
CCC(CC)c1cc([C@H]2CN3CC[C@H]2C[C@@H]3COC(=O)Nc2ccc(C(C)(C)C)cc2)nc(-c2ccncc2)n1,–,"inconclusive: 35.5 µM [cytotoxic, single point]"
CCn1cnc2c(Nc3cccc(Cl)c3)nc(N[C@@H]3CCCC[C@@H]3N)nc21,–,"inconclusive: 28.2 µM [cytotoxic, partial curve]"
O=C1Nc2ccc3ncsc3c2/C1=C/c1cnc[nH]1,–,"inconclusive: 4.74 µM [cytotoxic, full curve, poor fit]"
C[C@H]1CCCC=CC2C[C@H](O)C[C@@H]2[C@H](O)C=CC(=O)O1 (some centres undefined),–,"inconclusive: 0.0857 µM [cytotoxic, full curve, poor fit]"
Cn1nc(C2CCNCC2)n(C2CCCC2)c1=O,–,"inconclusive: 1 µM [cytotoxic, full curve]"
COc1cc2c(cc1OCc1ccccc1)NC(=O)C21CCN(c2cnccn2)CC1,inactive: -9.93% [at 87.6 µM],–
COc1cc2c(cc1OCc1ccccc1)N([S+](=O)([O-])c1cccc3cccnc13)CC21CCN(C)CC1,–,"inconclusive: 35.5 µM [cytotoxic, single point]"
CCCCCOc1cc2c(cc1-c1cc(/C=C/C(=O)O)ccc1O)C(C)(C)CCC2(C)C,–,"inconclusive: 33.6 µM [cytotoxic, single point]"
O[C@H]1COCCN(C2CCOCC2)C1,inactive: 5.83% [at 87.6 µM],–

SMILES,"activity change, negative = cytotoxicity",Potency
CN(C)c1ccc(C(=O)NC[C@H]2C[C@@H]3CCN2C[C@@H]3CN2CCc3ccccc3C2)cc1,inactive: -24.4% [at 87.6 µM],–
Cc1nc(-c2ccco2)cc([C@H]2CN3CC[C@H]2C[C@@H]3CNC(=O)c2cccs2)n1,inactive: -4.6% [at 87.6 µM],–
c1ccc(N2CC[C@@]3(CCCNC3)C2)cc1,–,"inconclusive: 25.1 µM [cytotoxic, partial curve, poor fit]"
CCC(CC)c1cc([C@H]2CN3CC[C@H]2C[C@@H]3CNC2CCN(C)CC2)nc(-c2ccncc2)n1,–,"inconclusive: 20 µM [cytotoxic, partial curve, poor fit]"
CC(=O)[O][Hg][c]1ccccc1,–,"inconclusive: 10 µM [cytotoxic, single point]"
O=c1[nH]c2ccccc2n1C1CCN(CCCC(c2ccc(F)cc2)c2ccc(F)cc2)CC1,–,"inconclusive: 37.7 µM [cytotoxic, single point]"
O=C1NC2(CCCN(Cc3ccncc3)C2)COc2ccccc21 (centres undefined),inactive: -8.75% [at 87.6 µM],–
COc1cc2c(cc1OCC1CC1)NC(=O)C21CCN(Cc2ccncc2)CC1,inactive: 5.27% [at 87.6 µM],–
Cc1nc(-c2cccs2)cc([C@H]2CN3CC[C@H]2C[C@@H]3CO)n1,inactive: -24.8% [at 87.6 µM],–
COc1cc2c(cc1OCc1ccccc1)N(C(=O)c1ccc3[nH]ccc3c1)CC21CCN(C)CC1,–,"inconclusive: 31.6 µM [cytotoxic, single point]"
CC(C)C(=O)N1CC[C@@H]2COCCN(Cc3cccnc3)[C@@H]2C1,–,"inconclusive: 3.16 µM [rising, full curve]"
COc1ccc(CC(=O)N2CC3(CCN(C)CC3)c3cc(OC)c(OCc4ccccc4)cc32)cc1,–,"inconclusive: 22.4 µM [cytotoxic, partial curve, poor fit]"
COC1C(O)C(C)OC(OC2C(CO)O[C@@H](O[C@@H]3CC4CCC5C(CC[C@]6(C)[C@@H](C7=CC(=O)OC7)CC[C@]56O)[C@@]4(C)[C@H](O)C3)C(O)C2O)C1O (some centres undefined),–,"inconclusive: 1.99 µM [cytotoxic, full curve, poor fit]"
O=C1CN=C(c2ccccc2Cl)c2cc(Cl)ccc2N1Cc1cccc(Cl)c1,–,"inconclusive: 20 µM [cytotoxic, partial curve, poor fit]"
COc1cc2c(cc1OC1CCCC1)NC(=O)C21CCN(C(=O)c2ccccc2)CC1,inactive: -5.87% [at 87.6 µM],–
NC1CCc2cc(O)c(O)cc2C1 (centres undefined),–,"inconclusive: 39.8 µM [cytotoxic, single point]"
CN1CCN(C[C@H]2CN3CC[C@H]2C[C@@H]3CNS(=O)(=O)c2ccccc2)CC1,inactive: 2.51% [at 87.6 µM],–
O=C(CCc1nc2ccccc2s1)N1[C@H]2CC[C@@H]1c1cnc(-c3ccc(F)cc3)nc1C2,inactive: 6.22%,–
O=C(c1ccco1)N1CCC2(CC1)CN(Cc1ccncc1)C2,–,"inconclusive: 2.82 µM [cytotoxic, partial curve, poor fit]"
